Data: paper PMC10374575, “Quinpirole ameliorates nigral dopaminergic neuron damage in Parkinson’s disease mouse model through activating GHS-R1a/D2R heterodimers” (Acta Pharmacologica Sinica, 2023)

Biological target: T1, D2R-EGFP (UniProt P61169 1-444)
T1 construct: dopamine type 2 receptor; also called EGFP fusion (D2R-EGFP); source: PC-12 cells, transiently cotransfected, in living cells
Assay: FRET or BRET; BRET; PC-12 cells transiently cotransfected with GHS-R1a-Rluc and D2R-EGFP; coelenterazine H 5 uM, 37 °C, D-PBS; negative controls GHS-R1a-Rluc + EGFP and D2R-EGFP + Rluc
Details: partners not purified

Chain of D2R-EGFP (P61169 whole entry): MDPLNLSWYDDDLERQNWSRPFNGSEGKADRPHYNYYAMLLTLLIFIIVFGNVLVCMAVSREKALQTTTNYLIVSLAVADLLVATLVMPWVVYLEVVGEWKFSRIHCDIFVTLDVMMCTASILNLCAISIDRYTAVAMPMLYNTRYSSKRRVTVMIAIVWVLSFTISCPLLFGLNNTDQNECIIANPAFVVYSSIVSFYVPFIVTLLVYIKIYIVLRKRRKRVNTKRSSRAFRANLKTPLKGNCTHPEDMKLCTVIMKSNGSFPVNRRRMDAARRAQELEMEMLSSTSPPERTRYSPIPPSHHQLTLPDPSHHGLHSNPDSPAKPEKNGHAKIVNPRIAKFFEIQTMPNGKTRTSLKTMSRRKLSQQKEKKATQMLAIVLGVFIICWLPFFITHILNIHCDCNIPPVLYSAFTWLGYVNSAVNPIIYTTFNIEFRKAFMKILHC

increase of the BRET ratio over the negative control D2R-EGFP + Rluc: 220% | increase of the BRET ratio over the negative control GHS-R1a-Rluc + EGFP: 240%
B1: GHS-R1a-Rluc (receptor)
chain: not shown
notes: growth hormone secretagogue receptor 1a; also called Rluc fusion (GHS-R1a-Rluc); source: PC-12 cells, transiently cotransfected, in living cells
